From PubChem BioAssay AID1508624 (National Center for Advancing Translational Sciences (NCATS), 2021)
In all, about 48,000 compounds went through this assay and about 120 (0.25%) were called active. Roughly 4% stayed inconclusive and do not appear here. Calls follow the shape of the dose curve; as a rule, active = well fitted activation curve with a large enough effect; inconclusive = small, poorly fitted or top-dose-only effect, or another doubt; inactive = no such curve, though single readings can be large or run the other way. This is one part of the list.

Test: Primary qHTS for Identification of Small Molecule Activators of Huntingtin-Antisense Promoter Activity; also: nearly all actives have a fitted effect of over 55% in size
Details: HEK293 HTT-AS promoter firefly luciferase reporter (activity 0% = vehicle and -100% = no light), 24 h; series mostly up to 57.5 µM; activity change, positive = activation: at the top concentration
Procedure, shortened: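 HEK293 Fluc reporter, 2,500 cells/well, 24 h pre-culture; cpds up to 57.5 uM final, 24 h 37 degrees C; Dual-Glo, 10 min RT; normalized vehicle = 0%, zero RLU = -100%.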

Activity change, positive = activation, inactive:
Cc1cc(C)c(Cn2c(=O)n(Cc3ccccc3)c(=O)c3c(C)c(C)sc32)c(C)c1 14.3%
O=C(Nc1cccc(C(F)(F)F)c1)c1cc2nc(-c3ccco3)cc(C(F)(F)Cl)n2n1 1.33%
Cc1ccc(S(=O)(=O)c2nnn(CC(=O)Nc3ccccc3C)c2N)cc1 -12%
COc1ccc(-n2nc(C(=O)N3CCCCC3)c3c4ccccc4n(C)c3c2=O)cc1Cl -17.9%
CCOC(=O)c1cc(-c2ccccc2)n(CCC(=O)NCCc2ccc(C)cc2)c1C -35.8%
O=C(Nc1nc(-c2ccccc2)ns1)c1ccc(Cl)cc1 21.9%
CCOC(=O)c1c(NC(=O)c2ccc(S(=O)(=O)N(CC(C)C)CC(C)C)cc2)sc2c1CCN(CC)C2 -21.6%
CCOC(=O)N1CCc2c(sc(NCc3cccs3)c2C(=O)Nc2cc(Cl)ccc2OC)C1 -10.1%
CCN(CC)c1ccc(NC(=O)C2CCN(S(=O)(=O)c3ccc4c(c3)oc(=O)n4C)CC2)c(C)c1 -21.6%
CC(C(=O)O)c1ccc2c(c1)CC(=O)c1ccccc1S2 (stereo not given)
Cc1cccc(NC(=O)C(NS(=O)(=O)c2cccc3nsnc23)c2ccccc2)c1C (stereo not given) -0.228%
COc1ccccc1N1CCN(C(=O)c2ccc3c(c2)N(Cc2cc(C)ccc2C)C(=O)c2ccccc2S3(=O)=O)CC1 -29.2%
COc1ccc(CN(C(=O)c2cc(=O)c3ccccc3o2)C2CCS(=O)(=O)C2)cc1OC (stereo not given) 0%
Cc1nc(Nc2ncc(C(=O)Nc3c(C)cccc3Cl)s2)cc(N2CCN(CCO)CC2)n1
CC(=O)OCC(=O)[C@@]1(O)CC[C@H]2[C@@H]3CCC4=CC(=O)CC[C@]4(C)[C@@H]3C(=O)C[C@@]21C -0.653%
Cc1ccccc1OCCSc1nnc(-c2cccs2)o1 32.3%
Cc1ccc(NC(=O)Cn2c(=O)n(CCC(C)C)c(=O)c3cccnc32)cc1C -16%
CCC(C(=O)NCCC(C)C)N(C(=O)Cn1nnc(-c2ccc(C)cc2)n1)c1cccc(O)c1 (stereo not given) -38.6%
COc1ccc(Cl)cc1NC(=O)Cn1c(=O)n(Cc2ccc(F)cc2)c(=O)c2cccnc21 -27.8%
CCN(CCO)CCCC(C)Nc1ccnc2cc(Cl)ccc12 (stereo not given)
CC1CN(C(=O)N2CCC(C(=O)NCc3ccccc3F)CC2)c2cc(Cl)ccc2O1 (stereo not given) -20%
COc1ccccc1N1CCN(C(=O)Cn2c(=O)nc(-c3ccccc3)c3ccccc32)CC1 -47.9%
CCOc1ccc(NC(=O)C(C)n2c(=O)cc(-c3ccccc3)c3c(C)nn(C)c32)cc1 (stereo not given) 2.44%
COc1cc(N2CCC(N3CCN(C)CC3)CC2)ccc1Nc1ncnc(Nc2ccccc2S(=O)(=O)C(C)C)n1 -37.6%
CCOC(=O)c1ccc(NC(=O)C2=C(C)C(=O)OC23CCN(C(C)=O)CC3)cc1 -14.1%
Cc1ccc(Cl)cc1NC(=O)CCn1cnc2ccccc2c1=O -4.74%
COc1cc(Nc2nc3ccc(Cl)cc3nc2-n2nc(C)cc2C)cc(OC)c1 -11%
CCOC(=O)c1cccc(NC(=O)c2cc(C)nc3c2c(C)nn3-c2ccc(C)cc2)c1 -24.5%
O=C(CN1C(=O)COc2ccc(S(=O)(=O)NC3CCCC3)cc21)NCc1ccccc1Cl -12%
CCc1cccc(C)c1NC(=O)CSc1n[nH]c(-c2ccccc2)n1 -32.3%
Cn1ncc2c(Nc3cccc(C#N)c3)ncnc21 2.89%
Cc1cc(C)cc(NC(=O)C(=O)NCC(c2cccnc2)N2CCOCC2)c1 (stereo not given) -23.8%
CCOC(=O)c1c(CSc2ccccc2)n(C)c2cc(Br)c(O)c(CN(C)C)c12 -15.2%
COc1ccc(NC(=O)C(NS(=O)(=O)c2cccc3nsnc23)C(C)C)cc1OC (stereo not given) -3.41%
COc1ccc(-c2nc(S(=O)(=O)c3ccccc3)c(N3CCC(C)CC3)o2)cc1 4.84%
CN1C(=O)c2ccccc2Sc2ccc(NC(=O)N3CCN(c4ccc(F)cc4)CC3)cc21 -77.2%
CCN1CCN(Cc2ccc(-c3cc4c(N[C@H](C)c5ccccc5)ncnc4[nH]3)cc2)CC1 -37.8%
CCOc1ccc(CNC(=O)c2cc3cc(S(=O)(=O)N4CCCCC4)ccc3n2C)cc1 -47.7%
Cc1ccn(-c2ccc(-c3ncco3)cc2)c(=O)c1-c1ccc2nc(N)ncc2c1 -21.7%
Oc1ccc(NCc2ccccc2OCc2ccccc2)cc1 -1.48%
O=C1c2ccccc2-[n+]2ccc3c([nH]c4ccccc43)c21 -92.6%
COc1ccc(C(=O)NCCc2csc(-c3ccc(Cl)cc3)n2)c(OC)c1 -23%
CSc1ccc(CCNC(=O)CN2C(=O)COc3ccc(S(=O)(=O)N4CCCCCC4)cc32)cc1 -37.4%
Cc1ccc(Cl)cc1-n1c(SCC(=O)NCc2ccccc2)nc2n[nH]c(C)c2c1=N -44.6%
CCOC(=O)c1c(C)[nH]c(C)c1S(=O)(=O)N1CCCC(C(=O)N2CCN(c3cccc(Cl)c3)CC2)C1 (stereo not given) 0%
COc1ccccc1C(=O)Nc1ccc(-c2cc(C(F)(F)F)nn2-c2ccccc2)cc1 -31.4%
COc1ccc(CCNC(=O)CN(c2ccccc2)S(=O)(=O)N(C)C)cc1 -12%
COc1ccccc1-c1nn(CCC(=O)Nc2ccccc2)c2nc(C)cc(C)c12 -11.8%
O=C(Nc1ccc(F)c(F)c1)C(c1ccccc1)N1Cc2ccccc2C1=O (stereo not given) -10.3%
CCN(CC)CCNC(=O)c1cc2c(-c3cccc(OC)c3)nn(C)c2s1 -2.65%
CCOc1ccccc1NC(=O)Cn1c(=O)n(CCCC(=O)NCc2ccc(C)cc2)c(=O)c2ccccc21 -9.07%
Cc1ccc(C(=O)N2CCN(CCc3ccncc3)CC2)cc1 -2.51%
Cc1ccc2[nH]cc(C(c3ccccc3)c3ccc(Cl)s3)c2c1 (stereo not given) -27.9%
Cc1nn(C(C)C(=O)NCc2ccco2)c(=O)c2nn(-c3ccccc3)c(C)c12 (stereo not given) 5.08%
COc1ccccc1OCC(=O)NCCS(=O)(=O)N1CCN(c2ccccc2OC)CC1 7.26%
Cc1cccc2sc(N(Cc3cccnc3)C(=O)c3ccco3)nc12 -1.03%
CN1CCCCC1CCN1c2ccccc2Sc2ccc(S(C)=O)cc21 (stereo not given) -4.11%
CCN(CC)S(=O)(=O)c1ccc(C(=O)NC2CC(=O)N(c3ccc(OC)c(OC)c3)C2)cc1 (stereo not given) -21.9%
O=C(c1ccccc1Cl)N1CCC(c2nc3ccccc3s2)CC1 -20.8%
CC(=O)c1ccc(NC(=O)c2cc3sccc3n2Cc2ccc(Cl)cc2)cc1 -8.88%
